# The other results are listed elsewhere or left out. Repeats are few or missing, and single values can be far off.
# Key:
# Assay in all cases: cell viability relative to vehicle (% of vehicle); basal-like triple-negative breast cancer lines; higher = less cytotoxic
# Conditions in all cases: 10 µM; 72 h
# HCC-1143 = tested on: HCC-1143
# HCC-1187 = tested on: HCC-1187
# MDA-468 = tested on: MDA-468
# SUM-149 = tested on: SUM-149
# 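Further: stably firefly luciferase-GFP labeled cells in 96-well plates, viability read as luciferase photon flux after d-luciferin addition, treated wells normalized to vehicle wells, single-dose high-throughput screen.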
SMILES,cell viability (HCC-1143),cell viability (HCC-1187),cell viability (MDA-468),cell viability (SUM-149)
O=C1CCC(N2C(=O)c3ccccc3C2=O)C(=O)N1 (configuration not stated) [Thalidomide],93,75.9,87.3,107
COc1cc(Nc2ncc(F)c(Nc3ccc4c(n3)N(COP(=O)([O-])[O-])C(=O)C(C)(C)O4)n2)cc(OC)c1OC.[Na+].[Na+] [R788 disodium],41.3,52.2,27.8,39.3
CN1C(C(=O)Nc2ccccn2)=C(O)c2sccc2S1(=O)=O [Tenoxicam],81.7,95.4,109,116
CCc1ccc(CCOc2ccc(CC3SC(=O)NC3=O)cc2)nc1.Cl (configuration not stated) [Pioglitazone HCl],91.9,81,92.2,146
Cl.Clc1ccc2nsnc2c1NC1=NCCN1 [Tizanidine HCl],81.1,94.5,98.9,106
O=C(NC(Cc1cc(=O)[nH]c2ccccc12)C(=O)O)c1ccc(Cl)cc1 (configuration not stated) [Rebamipide],77,84.6,108,101
C[C@@H]1NC(=O)[C@@H](N)CNC(=O)[C@H](C2CCNC(=N)N2)NC(=O)/C(=C/NC(N)=O)NC(=O)[C@H](CNC(=O)CC(N)CCCN)NC1=O.N=C1NCC[C@H]([C@@H]2NC(=O)/C(=C/NC(N)=O)NC(=O)[C@H](CNC(=O)C[C@@H](N)CCCN)NC(=O)[C@H](CO)NC(=O)[C@@H](N)CNC2=O)N1 [Capreomycin Sulfate],67.1,76.5,107,85.6
COc1ccccc1N1CCN(CCCNc2cc(=O)n(C)c(=O)n2C)CC1.Cl [Urapidil HCl],94.8,98.9,95.4,66.3
"Cc1cc(Nc2cc(N3CCN(C)CC3)nc(Sc3ccc(NC(=O)C4CC4)cc3)n2)n[nH]1 [VX-680 (MK-0457,Tozasertib)]",93.2,26.1,64.9,155
CC(Cn1cnc2c(N)ncnc21)OCP(=O)(O)O (configuration not stated) [Tenofovir],84.9,124,97,117
CO[C@H]1O[C@@H]2O[C@@]3(C)CC[C@H]4[C@H](C)CC[C@@H]([C@H]1C)[C@@]24OO3 [Artemether (SM-224)],71.1,89.2,87.2,88.7
CCCCNc1ccc(C(=O)OCCN(C)C)cc1.Cl [Tetracaine HCl],88.5,77.9,102,126
Cc1cc(C)c2c(c1)C(N(Cc1cc(C(F)(F)F)cc(C(F)(F)F)c1)c1nnn(C)n1)CCCN2CC1CCC(C(=O)O)CC1 (configuration not stated),108,82.4,76.4,115
CC12CCC3c4ccc(OC(=O)c5ccccc5)cc4CCC3C1CCC2O (configuration not stated) [Estradiol Benzoate],134,112,82.4,104
CCCC(C(=O)OCCN(CC)CC)(c1ccccc1)c1ccccc1.Cl [SKF 525A (hydrochloride)],72.3,92.5,102,84.5
COc1ccc(-c2ccc3cc(C(=O)O)ccc3c2)cc1C12CC3CC(CC(C3)C1)C2 [Adapalene],114,84.3,104,97.8
O=C(O)CCCN1CCC(OC(c2ccc(Cl)cc2)c2ccccn2)CC1.O=S(=O)(O)c1ccccc1 (configuration not stated) [Bepotastine Besilate],78.9,98.6,97.8,111
CC(=O)Oc1cccc2c1C(=O)c1c(OC(C)=O)cc(C(=O)O)cc1C2=O [Diacerein],94.3,96.7,128,114
CN(C)CCc1c[nH]c2ccc(CS(=O)(=O)N3CCCC3)cc12.O=C(O)CC(O)C(=O)O [Almotriptan Malate],71,94.5,101,87.5

SMILES,cell viability (HCC-1143),cell viability (HCC-1187),cell viability (MDA-468),cell viability (SUM-149)
Cc1ccc(Nc2nccc(N(C)c3ccc4c(C)n(C)nc4c3)n2)cc1S(N)(=O)=O.Cl [Pazopanib Hydrochloride],81.8,97.8,103,95.2
COc1cc(C(=O)NC2CCCNC2)cc(OC)c1OC (configuration not stated) [Troxipide],70.7,85.7,106,124
CCC(CO)NCCNC(CC)CO.Cl.Cl (configuration not stated) [Ethambutol HCl],83.7,75.5,105,103
COc1ccc(CN(CCN(C)C)c2ccccn2)cc1.O=C(O)/C=C\C(=O)O [Mepyramine maleate],87.9,90.5,113,120
CC(C)(C)NC(=O)NC(C(=O)N1CC2C(C1C(=O)NC(CC1CCC1)C(=O)C(N)=O)C2(C)C)C(C)(C)C (configuration not stated) [Boceprevir],85.5,80.4,78.9,140
CCCCNc1cc(C(=O)O)cc(S(N)(=O)=O)c1Oc1ccccc1 [Bumetanide],97.7,97.9,97.5,101
CCCCC1=NC2(CCCC2)C(=O)N1Cc1ccc(-c2ccccc2-c2nn[nH]n2)cc1 [Irbesartan],85.2,125,90.4,125
NS(=O)(=O)c1cc2c(cc1Cl)NCNS2(=O)=O [Hydrochlorothiazide],99.2,133,123,108
NC(CC(=O)N1CCn2c(nnc2C(F)(F)F)C1)Cc1cc(F)c(F)cc1F.O.O=P(=O)OO.[HH] (configuration not stated) [Sitagliptin phosphate monohydrate],101,105,96.7,123
CNCC(O)c1ccc(O)c(O)c1 [L-Adrenaline],123,138,151,112
CC(C)(Oc1ccc(CCNC(=O)c2ccc(Cl)cc2)cc1)C(=O)O [Bezafibrate],99.2,124,105,99.7
CCCCCCCN(CC)CCCC(O)c1ccc(NS(C)(=O)=O)cc1.CCCCCCCN(CC)CCCC(O)c1ccc(NS(C)(=O)=O)cc1.O=C(O)C=CC(=O)O (configuration not stated) [Ibutilide Fumarate],77,99.1,129,111
CC(CCC(=O)O)C1CCC2C3C(O)CC4CC(O)CCC4(C)C3CC(O)C12C (configuration not stated) [Cholic acid],78.6,70.2,119,125
Cc1c(-c2ccc(O)cc2)n(Cc2ccc(OCCN3CCCCCC3)cc2)c2ccc(O)cc12.Cl [Bazedoxifene HCl],55,71.2,76.1,71.8
COc1cc(CNC(=O)CCCCC=CC(C)C)ccc1O [Capsaicin],88.6,104,83.8,113
NCC1OC(OC2C(CO)OC(OC3C(O)C(N)CC(N)C3OC3OC(CN)C(O)C(O)C3N)C2O)C(N)C(O)C1O.O=S(=O)(O)O (configuration not stated) [Neomycin sulfate],69.8,75.3,60.9,71.8
Cl.O=c1n(CCCN2CCN(c3cccc(Cl)c3)CC2)nc2ccccn12 [Trazodone HCl],110,108,98.7,120
CC1(C)SC2C(NC(=O)C(N)c3ccc(O)cc3)C(=O)N2C1C(=O)O (configuration not stated) [Amoxicillin],115,105,106,110
OCCN1CC(O)C(O)C(O)C1CO (configuration not stated) [Miglitol],80.4,93,105,108

# Source: the supplement of paper PMC8512760
